Experimental data reported in paper PMC4336329 (PLoS ONE, 2015).
The campaign covered roughly 310,000 compounds. About 14,000 (4.5%) showed an effect of 50% or more. The effect is printed as a negative number. This is one part of the list.

Biological target: human ether-à-go-go-related gene (hERG) potassium channel (human, UniProt Q12809)
Test: primary screen, population patch clamp on CHO cells stably expressing hERG
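Note: peak tail current of the secondary pulse compared with the same well before compound.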

Chain of human ether-à-go-go-related gene (hERG) potassium channel (Q12809 whole entry, looked up): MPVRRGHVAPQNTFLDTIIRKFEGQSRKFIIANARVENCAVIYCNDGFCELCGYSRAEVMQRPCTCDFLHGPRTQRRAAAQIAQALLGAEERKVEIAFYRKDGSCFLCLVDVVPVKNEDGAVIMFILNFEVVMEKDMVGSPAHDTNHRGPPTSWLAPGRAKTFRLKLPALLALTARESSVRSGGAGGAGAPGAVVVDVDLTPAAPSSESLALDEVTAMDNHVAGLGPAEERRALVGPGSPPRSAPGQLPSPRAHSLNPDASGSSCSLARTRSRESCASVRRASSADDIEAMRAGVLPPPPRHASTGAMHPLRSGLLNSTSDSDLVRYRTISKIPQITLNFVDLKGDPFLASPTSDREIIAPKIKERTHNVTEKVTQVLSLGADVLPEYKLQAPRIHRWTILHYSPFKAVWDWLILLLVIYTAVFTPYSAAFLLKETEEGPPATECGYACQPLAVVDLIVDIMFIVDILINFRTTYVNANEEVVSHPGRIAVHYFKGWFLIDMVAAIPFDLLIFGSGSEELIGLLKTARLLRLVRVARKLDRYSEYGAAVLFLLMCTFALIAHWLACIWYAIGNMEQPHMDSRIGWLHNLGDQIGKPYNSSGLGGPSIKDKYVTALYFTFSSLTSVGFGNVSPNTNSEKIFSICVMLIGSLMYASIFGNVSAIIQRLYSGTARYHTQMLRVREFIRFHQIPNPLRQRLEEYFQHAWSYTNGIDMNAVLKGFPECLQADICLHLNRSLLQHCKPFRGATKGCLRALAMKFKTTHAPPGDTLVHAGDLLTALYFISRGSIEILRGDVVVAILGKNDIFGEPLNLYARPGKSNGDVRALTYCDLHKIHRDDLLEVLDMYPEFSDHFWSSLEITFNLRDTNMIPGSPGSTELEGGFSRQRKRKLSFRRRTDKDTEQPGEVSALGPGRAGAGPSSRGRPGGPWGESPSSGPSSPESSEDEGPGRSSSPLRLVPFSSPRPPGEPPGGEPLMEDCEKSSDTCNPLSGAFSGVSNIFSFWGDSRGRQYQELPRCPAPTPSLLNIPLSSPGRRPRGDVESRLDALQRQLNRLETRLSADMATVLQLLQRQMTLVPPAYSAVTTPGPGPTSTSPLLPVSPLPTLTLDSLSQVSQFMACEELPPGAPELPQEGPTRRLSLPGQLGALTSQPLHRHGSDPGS

SMILES | hERG current change (%, negative = inhibition) at 10uM [%]
CC1CC1C(=O)N1CCN(S(=O)(=O)c2cc(C(F)(F)F)cc(C(F)(F)F)c2)CC1 (centres unmarked) | -35.4
C[N+]12CCCCC1[C@@H](CO)CCC2.[Br-] (some centres unmarked) | 11.1
Cc1ccc(C2=NNC(=O)C(P(=O)(c3ccccc3)c3ccccc3)C2)cc1 (centres unmarked) | 22.4
CC1(C)O[C@@H]2[C@H](O1)[C@@H](COS(=O)(=O)[O-])O[C@H]2n1c(=S)[nH]c2c(=O)[nH]c(N)nc21.[K+] | 19.1
Cc1nnc(SCC(=O)c2c(N)n(C3CC3)c(=O)[nH]c2=O)n1-c1ccccc1 | 5.53
COc1ccc(/C(C)=N/OCC(=O)N2CC3(C)CC2CC(C)(C)C3)cc1 (centres unmarked) | -11.6
CN(CC(=O)Nc1cccc(F)c1)CC(=O)N(C)CC(=O)Nc1ccccc1Br | -13.7
C/C(=N/NC(=O)CNC(=O)c1ccccc1F)c1ccc2c(c1)CCCC2 | -10.7
CCOc1ccc(S(=O)(=O)NCC2CCCO2)c2cccnc12 (centres unmarked) | 8.01
O=S(=O)(c1ccc(SCc2ccc(Br)cc2)nc1)N1CCOCC1 | 4.88
Cc1ccc(CNC(=O)CCC(=O)N2CC(C)Oc3ccccc32)cc1 (centres unmarked) | -28
Cc1sc2ncnc(N3CCC(C(=O)Nc4sc5c(c4C(N)=O)CCC(C)C5)CC3)c2c1C (centres unmarked) | -2.24
O=C(CS(=O)(=O)Cc1ccccc1)Nc1nc2ccccc2s1 | -10.2
O=C(NC12CC3CC(CC(C3)C1)C2)N1CCC(n2nnc3ccccc32)CC1 | 2.67
CCN1C(=NCCOC)N[C@@H](CCc2ccccc2)[C@H](C(=O)OC)[C@H]1C | -1.21
O=C1NC(=O)C2(Cc3c(nc4ccccn4c3=O)N3CCCCCC32)C(=O)N1Cc1ccccc1 (centres unmarked) | -31.3
CC(=O)NC1=NN(C(C)=O)C(c2ccc(C(C)C)cc2)S1 (centres unmarked) | 5.12
CCOC(=O)c1[nH]c(C)c(C(=O)NC(C)(C)C)c1C | -0.859
COC(=O)c1ccc(/C=C/c2ccc3cccc(OC(C)=O)c3n2)cc1 | 4.18
CCCCc1cc(=O)oc2c(CN(C)C)c(O)ccc12 | -37.9
CC(C)(C)C(=O)NNc1nc(-c2ccccc2)c2cc(Br)ccc2n1 | -0.33
O=C(CSc1ccc(-c2ccccc2)nn1)c1ccccc1 | -5.17

SMILES | hERG current change (%, negative = inhibition) at 10uM [%]
O=C(Cn1nnc(-c2ccc(CN3CCOCC3)cc2)n1)Nc1nc(-c2ccccc2)cs1 | -3.24
Cc1ccc(-c2csc(NC(=O)c3cccc(S(=O)(=O)N4CCN(C)CC4)c3)n2)cc1 | -4.09
CC1(C)CC(OC(=O)c2ccccc2)CC(C)(C)N1 | 9.14
COC(=O)c1nc(NC2=NCCCCC2)n[nH]1 | 9.79
COc1cc(O)c(C(CCN2CCCCC2)c2ccc3c(c2)OCO3)c(OC)c1 (centres unmarked) | -78.3
COc1ccc(C(=O)Nc2cc(OC)ccc2OC)cc1 | 7.17
CCS(=O)(=O)c1ccc(NC(=O)c2ccccc2Cl)c(O)c1 | 2.25
COc1ccccc1NS(=O)(=O)c1cc(NC(=O)c2ccc3c(c2)OCCO3)ccc1C | 4.37
CCOc1ccccc1C(=O)NCC(=O)Nc1ccc2c(c1)OCO2 | 9.91
COc1ccc2nc(C)cc(N/N=C/c3ccccc3)c2c1 | -17.1
O=c1[nH]c2cc3c(cc2cc1C(c1nnnn1CC1CCCO1)N1CCCC1)OCO3 (centres unmarked) | 15
Nc1c(S(=O)(=O)c2ccccc2)c2nc3ccccc3nc2n1/N=C/c1cccc(O)c1 | 2.33
COC(=O)C1CSC(c2ccc(Cl)cc2)N1C(=O)c1ccccc1 (centres unmarked) | -47.1
CCN(CC)CCOC(=O)c1ccccc1Br.Cl | 0.452
CCc1cccc2c(C(=O)COC(=O)/C=C/c3ccccc3OC)c[nH]c12 | -16
CCCc1cnc(N2CCN(S(=O)(=O)c3cccs3)CC2)nc1 | 6.53
O=C(O)c1ccc(NC(=O)c2cccc(NC(=O)c3cccs3)c2)cc1 | -6.21
COC(=O)c1c(C)[nH]c(C(=O)OCC(=O)N2c3ccccc3NC(=O)C2(C)C)c1C | -15.1
O=C(COC(=O)c1sc2ccccc2c1Cl)Nc1ncc(Cl)cc1Cl | -0.251
CC1CCN(S(=O)(=O)c2ccc3c(c2)C(=NO)c2cc(S(=O)(=O)N4CCC(C)CC4)ccc2-3)CC1 | 8.19
Cc1cc(NC(=O)Nc2c[nH]c(=O)[nH]c2=O)ccc1Br | 16.4
COc1ccc(NC(=S)Nc2cccnc2)c(OC)c1 | 8.2
